From PMC9911399, “Two distinct binding modes provide the RNA-binding protein RbFox with extraordinary sequence specificity”
Residue numbers refer to the chain shown, from its start. The list shows a part of the results.

T1: RBFOX1 RRM RbFoxmut (Fox-RRM*) (Homo sapiens, UniProt Q9NWB1 109-208, R118D;E147R;N151S;E152T)
T1 sequence: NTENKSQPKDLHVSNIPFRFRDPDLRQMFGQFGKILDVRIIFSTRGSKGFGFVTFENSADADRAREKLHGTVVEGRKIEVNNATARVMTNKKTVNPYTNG

B1: GAUUGUG (DNA:RNA)
RNA: GGGAGACCGGAAUUCAGAUUGUCCGAUUGUGUUAAAUCCCGUCGUAGCCACCA
DNA 1: CAATCTGAATTCCGGTCTCCC
DNA 2: TGGTGGCTACGACGGGATT
B2: CCACAGA (DNA:RNA)
RNA: GGGAGACCGGAAUUCAGAUUGUCCCCACAGAUUAAAUCCCGUCGUAGCCACCA
DNA 1: CAATCTGAATTCCGGTCTCCC
DNA 2: TGGTGGCTACGACGGGATT
B3: UCACAUU (DNA:RNA)
RNA: B2 RNA with C25U, G30U, A31U
DNA 1: CAATCTGAATTCCGGTCTCCC
DNA 2: TGGTGGCTACGACGGGATT
B4: UCCUGGG (DNA:RNA)
RNA: B1 RNA with G25U, A26C, U27C, U30G
DNA 1: CAATCTGAATTCCGGTCTCCC
DNA 2: TGGTGGCTACGACGGGATT
B5: UUACCGC (DNA:RNA)
RNA: B2 RNA with C25U, C26U, A29C, A31C
DNA 1: CAATCTGAATTCCGGTCTCCC
DNA 2: TGGTGGCTACGACGGGATT
B6: AUCGACG (DNA:RNA)
RNA: B2 RNA with C25A, C26U, A27C, C28G, G30C, A31G
DNA 1: CAATCTGAATTCCGGTCTCCC
DNA 2: TGGTGGCTACGACGGGATT
B7: GUCAUGA (DNA:RNA)
RNA: B2 RNA with C25G, C26U, A27C, C28A, A29U
DNA 1: CAATCTGAATTCCGGTCTCCC
DNA 2: TGGTGGCTACGACGGGATT
B8: UCAUGAC (DNA:RNA)
RNA: B2 RNA with C25U, C28U, A29G, G30A, A31C
DNA 1: CAATCTGAATTCCGGTCTCCC
DNA 2: TGGTGGCTACGACGGGATT
B9: GGGGAAG (DNA:RNA)
RNA: B1 RNA with A26G, U27G, U28G, G29A, U30A
DNA 1: CAATCTGAATTCCGGTCTCCC
DNA 2: TGGTGGCTACGACGGGATT
B10: UCCCUUA (DNA:RNA)
RNA: B2 RNA with C25U, A27C, A29U, G30U
DNA 1: CAATCTGAATTCCGGTCTCCC
DNA 2: TGGTGGCTACGACGGGATT
B11: CGCCUGC (DNA:RNA)
RNA: B2 RNA with C26G, A27C, A29U, A31C
DNA 1: CAATCTGAATTCCGGTCTCCC
DNA 2: TGGTGGCTACGACGGGATT
B12: GCCGUAA (DNA:RNA)
RNA: B2 RNA with C25G, A27C, C28G, A29U, G30A
DNA 1: CAATCTGAATTCCGGTCTCCC
DNA 2: TGGTGGCTACGACGGGATT
B13: GAGAGAC (DNA:RNA)
RNA: B1 RNA with U27G, U28A, U30A, G31C
DNA 1: CAATCTGAATTCCGGTCTCCC
DNA 2: TGGTGGCTACGACGGGATT
B14: GAAACGU (DNA:RNA)
RNA: B2 RNA with C25G, C26A, C28A, A29C, A31U
DNA 1: CAATCTGAATTCCGGTCTCCC
DNA 2: TGGTGGCTACGACGGGATT
B15: UGAGAGU (DNA:RNA)
RNA: B2 RNA with C25U, C26G, C28G, A31U
DNA 1: CAATCTGAATTCCGGTCTCCC
DNA 2: TGGTGGCTACGACGGGATT
B16: GCGCAAU (DNA:RNA)
RNA: B2 RNA with C25G, A27G, G30A, A31U
DNA 1: CAATCTGAATTCCGGTCTCCC
DNA 2: TGGTGGCTACGACGGGATT
B17: GAAGAUG (DNA:RNA)
RNA: B1 RNA with U27A, U28G, G29A
DNA 1: CAATCTGAATTCCGGTCTCCC
DNA 2: TGGTGGCTACGACGGGATT
B18: UUUUCAA (DNA:RNA)
RNA: B1 RNA with G25U, A26U, G29C, U30A, G31A
DNA 1: CAATCTGAATTCCGGTCTCCC
DNA 2: TGGTGGCTACGACGGGATT
B19: AAGGAAU (DNA:RNA)
RNA: B2 RNA with C25A, C26A, A27G, C28G, G30A, A31U
DNA 1: CAATCTGAATTCCGGTCTCCC
DNA 2: TGGTGGCTACGACGGGATT
B20: GUAAUGC (DNA:RNA)
RNA: B2 RNA with C25G, C26U, C28A, A29U, A31C
DNA 1: CAATCTGAATTCCGGTCTCCC
DNA 2: TGGTGGCTACGACGGGATT
B21: CUUGCGG (DNA:RNA)
RNA: B2 RNA with C26U, A27U, C28G, A29C, A31G
DNA 1: CAATCTGAATTCCGGTCTCCC
DNA 2: TGGTGGCTACGACGGGATT
B22: AGAGGGC (DNA:RNA)
RNA: B2 RNA with C25A, C26G, C28G, A29G, A31C
DNA 1: CAATCTGAATTCCGGTCTCCC
DNA 2: TGGTGGCTACGACGGGATT
B23: UCUGGCG (DNA:RNA)
RNA: B1 RNA with G25U, A26C, U28G, U30C
DNA 1: CAATCTGAATTCCGGTCTCCC
DNA 2: TGGTGGCTACGACGGGATT
B24: UAUGGCC (DNA:RNA)
RNA: B1 RNA with G25U, U28G, U30C, G31C
DNA 1: CAATCTGAATTCCGGTCTCCC
DNA 2: TGGTGGCTACGACGGGATT
B25: GUCGUCA (DNA:RNA)
RNA: B2 RNA with C25G, C26U, A27C, C28G, A29U, G30C
DNA 1: CAATCTGAATTCCGGTCTCCC
DNA 2: TGGTGGCTACGACGGGATT
B26: CUCAGAC (DNA:RNA)
RNA: B2 RNA with C26U, A27C, C28A, A29G, G30A, A31C
DNA 1: CAATCTGAATTCCGGTCTCCC
DNA 2: TGGTGGCTACGACGGGATT
B27: CGUCUUA (DNA:RNA)
RNA: B2 RNA with C26G, A27U, A29U, G30U
DNA 1: CAATCTGAATTCCGGTCTCCC
DNA 2: TGGTGGCTACGACGGGATT
B28: CAAGGAC (DNA:RNA)
RNA: B2 RNA with C26A, C28G, A29G, G30A, A31C
DNA 1: CAATCTGAATTCCGGTCTCCC
DNA 2: TGGTGGCTACGACGGGATT
B29: UAGUACU (DNA:RNA)
RNA: B1 RNA with G25U, U27G, G29A, U30C, G31U
DNA 1: CAATCTGAATTCCGGTCTCCC
DNA 2: TGGTGGCTACGACGGGATT
B30: CCGCGAG (DNA:RNA)
RNA: B2 RNA with A27G, A29G, G30A, A31G
DNA 1: CAATCTGAATTCCGGTCTCCC
DNA 2: TGGTGGCTACGACGGGATT
B31: UCGUGGA (DNA:RNA)
RNA: B2 RNA with C25U, A27G, C28U, A29G
DNA 1: CAATCTGAATTCCGGTCTCCC
DNA 2: TGGTGGCTACGACGGGATT

Target: T1, RBFOX1 RRM RbFoxmut (Fox-RRM*)
Experiment: EMSA; HiTS-Eq, 1 nM pool, 10 min; buffer printed only for the single-RNA assays: 10 mM Tris pH 7.5, 150 mM NaCl, 3.4 mM EDTA, 0.001% NP-40, 30 C
Settings: tags: His6 N-terminal (pET28a); label: 5' 32P
Summary of the method: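 Purified RbFox RRM, wild type or mutant, was incubated for 10 min in 50 µL with 1 nM of a 5′-radiolabelled RNA pool carrying 7 randomized nucleotides, whose flanks were annealed to DNA oligonucleotides, over a series of increasing protein concentrations. Unbound RNA was resolved on 8% native PAGE, cut out, reverse-transcribed, barcoded by PCR and sequenced on an Illumina HiSeq 2500. Relative association constants were derived from changes in read counts for each RNA species versus the control reaction and normalised to the cognate motif.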

Row | Binder | binding signal
1 | B1 | 0.249 KA relative to UGCAUGU
2 | B2 | 0.0901 KA relative to UGCAUGU
3 | B3 | 0.0691 KA relative to UGCAUGU
4 | B4 | 0.0597 KA relative to UGCAUGU
5 | B5 | 0.0783 KA relative to UGCAUGU
6 | B6 | 0.0916 KA relative to UGCAUGU
7 | B7 | 0.2 KA relative to UGCAUGU
8 | B8 | 0.0977 KA relative to UGCAUGU
9 | B9 | 0.103 KA relative to UGCAUGU
10 | B10 | 0.0801 KA relative to UGCAUGU
11 | B11 | 0.129 KA relative to UGCAUGU
12 | B12 | 0.102 KA relative to UGCAUGU
13 | B13 | 0.0579 KA relative to UGCAUGU
14 | B14 | 0.111 KA relative to UGCAUGU
15 | B15 | 0.111 KA relative to UGCAUGU
16 | B16 | 0.0516 KA relative to UGCAUGU

Row | Binder | binding signal
17 | B17 | 0.127 KA relative to UGCAUGU
18 | B18 | 0.0545 KA relative to UGCAUGU
19 | B19 | 0.0899 KA relative to UGCAUGU
20 | B20 | 0.127 KA relative to UGCAUGU
21 | B21 | 0.0958 KA relative to UGCAUGU
22 | B22 | 0.0771 KA relative to UGCAUGU
23 | B23 | 0.12 KA relative to UGCAUGU
24 | B24 | 0.209 KA relative to UGCAUGU
25 | B25 | 0.157 KA relative to UGCAUGU
26 | B26 | 0.0651 KA relative to UGCAUGU
27 | B27 | 0.072 KA relative to UGCAUGU
28 | B28 | 0.0678 KA relative to UGCAUGU
29 | B29 | 0.081 KA relative to UGCAUGU
30 | B30 | 0.126 KA relative to UGCAUGU
31 | B31 | 0.0721 KA relative to UGCAUGU
